{"source": "PubChem BioAssay (NCI)", "note": "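Values below derive from 48-hour exposures of cells grown in 96-well plates, with endpoints linearly interpolated between the two concentrations bracketing the appropriate inhibition level. GI50 marks 50% less growth. TGI marks complete inhibition of growth.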"}
{"tested_on": "NCI-H322M lung", "assay": "NCI anticancer screen, dose series, 48 h", "units": {"GI50": "µM", "TGI": "µM"}}
{"compound": "COc1ccc(CN2[C@@H](C(=O)NCc3ccc(C(=O)NO)cc3)Cc3c([nH]c4ccccc34)[C@@H]2C)cc1", "GI50": 2.59, "TGI": "> 21"}
{"compound": "CCCN(CCC)S(=O)(=O)c1ccc(C(=O)O)cc1.CCCN(CCC)S(=O)(=O)c1ccc(C(=O)O)cc1.[Cl][Pt+2][Cl].[NH2-].[NH2-]", "GI50": 9.17, "TGI": "> 100"}
{"compound": "CC1(C)CC[C@]2(C(=O)Nc3ccccc3)CC[C@]3(C)C(=CC[C@@H]4[C@@]5(C)CC[C@H](N)C(C)(C)[C@@H]5CC[C@]43C)[C@H]2C1", "GI50": 15.2, "TGI": 28.5}
{"compound": "COc1ccc(C(=O)COc2ccc(NC(=O)Nc3ccc(Cl)c(C(F)(F)F)c3)cc2)cc1", "GI50": 2.33, "TGI": "> 100"}
